Laboratory results reported in PubChem BioAssay AID1347417 (National Center for Advancing Translational Sciences (NCATS), 2020).
The whole screen tested about 120,000 compounds, of which about 5,300 (4.4%) were called active. This list was built around the results that the source calls inconclusive (neither active nor inactive); the mix of calls is not that of the screen. Calls come from the whole dose curve; as a rule, active = well fitted inhibition curve with a large enough effect; inconclusive = small, poorly fitted or top-dose-only effect; inactive = no such curve, though single readings can be large or run the other way. A potency beside an inconclusive call is a rough fit, not a confirmed value.
Potency is the fitted concentration of half-maximal effect; tags give direction and shape of the fitted curve.

Assay: qHTS Primary assay for Inhibitors of Plasmodium falciparum Dd2 growth in vitro; note: nearly all actives have a fitted effect of over 65% in size
Conditions: P. falciparum Dd2 growth, SYBR Green, 72 h; series mostly up to 28.9 µM
Summary of the method: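 Readout: SYBR Green fluorescence, 485 nm excitation, 535 nm emission, after ~16 h lysis at 37C. Before that, Dd2-infected red cells (2.5% hematocrit) grew 72 h with compound, 29 uM top final concentration.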
With `CCCN1C(C(=O)c2ccccc2)=C(OC(=O)COc2ccccc2)c2ccccc2S1(=O)=O` the Potency was inconclusive: 10 µM [inhibitor, partial curve]. For `Cc1noc(C)c1[S+](=O)([O-])N1CCC2(C1)N=C(c1ccncc1)C(=O)N2` (stereo not given), the Potency was “inactive”. For `Cc1cccc(N2CCN(S(=O)(=O)c3ccc4c(c3)CCCN4C(=O)C3CCC3)CC2C)c1` (stereo not given), the Potency was inconclusive: 11.2 µM [inhibitor, single point]. With `OC[C@@H]1O[C@H](CNCc2ccc(F)cc2)[C@H](N2CCN(c3ccccc3)CC2)[C@@H]1O` the Potency was inconclusive: 3.98 µM [inhibitor, single point]. In the case of `C=CCNC(=O)[C@@H]1Cc2cn(Cc3cccnc3)c3cccc(c23)[C@H](CC(C)C)N1`, the Potency is reported as inconclusive: 10 µM [inhibitor, partial curve, poor fit]. For `O=C(c1ccc(Cl)cc1)N1CC2(CCN(Cc3ccc(Cl)cc3)C2)Cc2ccccc21` (stereo not given), the Potency was inconclusive: 8.91 µM [inhibitor, single point]. With `CN(CCC(O)c1ccccc1)c1nccc(-c2cccnc2)n1` (stereo not given) the Potency was active: 10 µM. With `Cc1ccc(NC(=O)N2CCC(CCNC(=O)Cc3cccc(F)c3)CC2)cc1F` the Potency was inconclusive: 14.1 µM [inhibitor, partial curve, poor fit]. For `O=C(CSc1nc2c([nH]c3ccccc32)c(=O)n1-c1ccc(F)cc1)NCc1ccccc1`, the Potency was inconclusive: 3.16 µM [inhibitor, partial curve]. With `COc1ccc(NC(=O)c2csc3c2CCCCC3)cc1` the Potency was inconclusive: 10 µM [inhibitor, single point]. For `O=C(NCc1nnc2c(-c3nc(C4CC4)no3)cccn12)c1ccc(F)cc1Cl`, the Potency was inconclusive: 1.12 µM [inhibitor, partial curve, poor fit]. With `Cc1ccc(Cc2c(C)nc3nc(SCC(=O)NC(C)c4ccccc4)nn3c2C)cc1` (stereo not given) the Potency was “inactive”. In the case of `CCOc1cccc(C(=O)Nc2ccc(S(=O)(=O)N(Cc3ccccc3)c3ccccc3)cc2)c1`, the Potency is reported as inconclusive: 17.8 µM [inhibitor, single point]. In the case of `COCCCNC(=O)CCN(CCC(C)C)C(=O)c1cc(C)oc1C`, the Potency is reported as inconclusive: 2 µM [inhibitor, full curve]. For `CCOc1ccc(NC(=O)Cn2cc(C(=O)c3ccc(CC)cc3)c(=O)c3cc(C)ccc32)cc1`, the Potency was inconclusive: 12.6 µM [inhibitor, single point]. For `O=C1NC2(CCN(C(=O)OCc3ccccc3)C2)N=C1c1ccccn1` (stereo not given), the Potency was inconclusive: 12.6 µM [inhibitor, single point]. For `CCCCc1nn(CC(=O)N2CCC(c3ccccc3)CC2)c(=O)n1CC`, the Potency was “inactive”. With `Cc1ccc(S(=O)(=O)N2CCC(n3cnnc3C(C)C)CC2)c(C)c1` the Potency was inconclusive: 11.2 µM [inhibitor, single point]. For `CC[C@H]1CN2CC[C@H]1C[C@@H]2CNC(=O)Nc1ccc(Oc2ccccc2)cc1`, the Potency was inconclusive: 7.94 µM [inhibitor, partial curve, poor fit]. With `Cc1cccc(=O)n1CCC(=O)N1CCCC2(CCC(=O)N(C3CC3)C2)C1` (stereo not given) the Potency was “inactive”. In the case of `Cn1nc(C2CCCN2)c2c(C(=O)NCc3ccc(F)cc3)cc(C3CC3)nc21` (stereo not given), the Potency is reported as inconclusive: 10 µM [inhibitor, single point]. In the case of `CNC(=O)[C@@H]1CN(C(=O)CCc2ccccc2OC)C[C@H]1c1n[nH]c(C)n1`, the Potency is reported as “inactive”. For `Cc1ccc(CN2CCC(CNc3ncnc4onc(-c5ccc(F)cc5)c34)CC2)cc1`, the Potency was inconclusive: 17.8 µM [inhibitor, single point]. With `CN1C[C@H](NC2CCOCC2)CCC[C@@H](C(=O)NC2CC2)CC1=O` the Potency was “inactive”. In the case of `CSc1ccccc1C(=O)N1CCN(C(C)=O)CC(O)C1` (stereo not given), the Potency is reported as “inactive”. For `Cc1noc(C)c1S(=O)(=O)NCCc1ncc(C)n1C1CCC1`, the Potency was inconclusive: 0.562 µM [inhibitor, partial curve]. In the case of `COCCN1C(=O)CCC2(CNC(=O)CCc3nc4ccccc4[nH]3)CCCC=C12` (stereo not given), the Potency is reported as inconclusive: 0.141 µM [inhibitor, full curve, poor fit]. In the case of `Cc1cccc(NC(=O)CCc2c(C)nc3c(c(C)nn3C(C)(C)C)c2C)c1C`, the Potency is reported as inconclusive: 10 µM [inhibitor, single point]. For `CCCc1nc(C(=O)N2CCOCC(O)(CN3CCCC3)C2)cs1` (stereo not given), the Potency was inconclusive: 15.8 µM [inhibitor, single point]. For `Cc1cc(NC(=O)C(C)(C)Oc2nn(CCOc3ccccc3)c3ccccc23)n(C)n1`, the Potency was inconclusive: 15.8 µM [inhibitor, single point]. In the case of `O=C1NC2(CCCN(CC3CCCCC3)C2)Oc2ccccc21` (stereo not given), the Potency is reported as inconclusive: 3.98 µM [inhibitor, single point]. With `CCOC(=O)CNC(=O)CCc1conc1-c1ccc(OC)cc1` the Potency was inconclusive: 10 µM [inhibitor, partial curve, poor fit]. With `Cc1ccc(Cl)cc1N1CCN(C(=O)c2cc3c(-c4ccccc4F)nn(C)c3s2)CC1` the Potency was inconclusive: 17.8 µM [inhibitor, single point]. In the case of `CCc1ccc2oc(-c3cc(NC(=O)c4cc([N+](=O)[O-])ccc4N4CCOCC4)ccc3Cl)nc2c1`, the Potency is reported as inconclusive: 17.8 µM [inhibitor, partial curve, poor fit]. With `CCOc1ccc(NC(=O)C2CCCN(c3cn[nH]c(=O)c3)C2)cc1` (stereo not given) the Potency was “inactive”. With `COc1ccc(C2(C(=O)NC3CCCc4c3[nH]c3ccccc43)CCOCC2)cc1` (stereo not given) the Potency was inconclusive: 15.8 µM [inhibitor, single point]. With `O=C(CCc1ccccc1)N1CCC(Oc2ccc(C(=O)N3CCOCC3)cn2)CC1` the Potency was “inactive”. In the case of `Cc1cnc(C(=O)N[C@@H]2CCC[C@@H]2C(=O)NCc2ccc(F)cc2)cn1`, the Potency is reported as “inactive”. In the case of `Cc1cccc(N2CCN(C(c3ccccc3)c3nnc(-c4ccccc4Cl)o3)CC2)c1C` (stereo not given), the Potency is reported as inconclusive: 17.8 µM [inhibitor, single point]. For `COc1ccc(-c2nc3c(c(SCC(=O)N4CCCCC4)n2)Cc2c(CO)cnc(C)c2O3)cc1`, the Potency was inconclusive: 8.91 µM [inhibitor, partial curve, poor fit].
